Assay results as given in PubChem BioAssay AID1240 (Sanford-Burnham Center for Chemical Genomics, 2008).
The campaign covered roughly 50,000 compounds. About 800 (1.6%) showed an effect of 50% or more. Some of the results follow.

Biological target: Bcl-2-like protein 10 (Homo sapiens) (UniProt Q9HD36)
Assay: TR3 peptide-Bcl-B binding displacers, biochemical primary FP assay, phenotype converters (AID 1240);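 note: 0% = Bcl-B with tracer peptide and DMSO and 100% = tracer peptide lacking Bcl-B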
Details: GST-Bcl-B / FITC-TR3 peptide fluorescence polarization; stronger effect = higher value; compound at 3.75 mg/L

Chain of UniProt Q9HD36 (Q9HD36 whole entry, looked up): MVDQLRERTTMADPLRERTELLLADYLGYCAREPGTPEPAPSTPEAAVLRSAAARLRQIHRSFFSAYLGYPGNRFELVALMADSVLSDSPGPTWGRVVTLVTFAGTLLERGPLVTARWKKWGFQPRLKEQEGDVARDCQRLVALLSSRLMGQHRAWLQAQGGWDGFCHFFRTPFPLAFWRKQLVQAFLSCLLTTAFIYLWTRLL

| SMILES | displacement [%] |
| --- | --- |
| C=CCN1C(=O)NC(=O)/C(=C\c2cccc(OCc3ccccc3Cl)c2)C1=O | -8.4 |
| O=C(/C=C/Nc1ccccc1O)C(F)(F)F | 2.7 |
| C=CCn1c(O)c(N=NC(=O)c2cc(C)[nH]n2)c2cc(Br)ccc21 | -7.3 |
| Cc1cccc(NCN2C(=O)c3ccccc3C2=O)c1 | 5.8 |
| O=C1C=C/C(=N/S(=O)(=O)c2ccc(F)cc2)C=C1Br | -9.6 |
| CO/N=C(/C(=O)O)c1cn2ccccc2n1 | -5.3 |
| Cc1ccsc1C=Nc1cccc([N+](=O)[O-])c1 | 1.2 |
| O=C(NN=C1CCCC1)C(O)(c1ccccc1)c1ccccc1 | 13.7 |
| CS(=O)(=O)N1CCN(C(=O)c2ccc(-c3ccccc3)cc2)CC1 | 11.6 |
| Cc1ccccc1NC(=S)NC(=O)C12CC3CC(CC(C3)C1)C2 | -4.8 |
| Cc1ccc(C)c(NC(=O)C(=O)NCc2ccccc2Cl)c1 | -1.7 |
| Cc1cc(C)nc(S(=O)CC(O)COc2ccccc2)n1 (centres undefined) | -4.7 |
| Cc1ccccc1CC1S/C(=N/N=C/c2ccccc2F)NC1=O (centres undefined) | -14.3 |
| Cc1cccc(N2CCN(C(=O)CCCOc3ccc(Cl)cc3Cl)CC2)c1C | 1.1 |
| CC(O)Cn1c2ccc(Cl)cc2c2cc(Cl)ccc21 (centres undefined) | -6 |
| Nc1nnc(SCc2ccc(Cl)c(Cl)c2)s1 | 7.3 |
| CCN(CC)c1nc(C)cc(COC)c1C#N | -1.4 |
| CC(=O)c1cccc(NC(=O)C2CCCCC2)c1 | -2.5 |
| CCOc1ccccc1C(=O)Nc1sc(C)c(C)c1C#N | 24 |
| O=C(CCCOc1ccccc1)Nc1ccc2c(c1)OCCO2 | -7.5 |
| O=C(Nc1ccc(Cl)cc1Cl)C1CCCO1 (centres undefined) | -11.4 |
| CCOC(=O)c1c(NC(C)=O)sc2c1CCC2 | 7.1 |
| CC(C)OC(=O)c1c(-c2ccccc2)csc1N | -1.9 |
| CCCOc1ccc(C(=O)Nc2ncc(Cc3ccccc3Cl)s2)cc1 | -1.7 |
| COc1ccc(C2Nc3ccccc3C(=O)N2Cc2ccco2)cc1CN1C(=O)c2ccccc2C1=O (centres undefined) | -4.5 |

| SMILES | displacement [%] |
| --- | --- |
| O=C1S/C(=C/c2ccc(-c3cccc([N+](=O)[O-])c3)o2)C(=O)N1c1ccccc1 | 111 |
| CCOc1ccc(Nc2nc(-c3c(C)nc4sccn34)cs2)cc1 | -20.2 |
| O=C(N/N=C/c1ccc(Cl)cc1Cl)c1cc(O)cc(O)c1 | -2.8 |
| CCOC(=O)c1c(NC(=O)c2ccc(OC)c(OC)c2)sc(C(=O)N(CC)CC)c1C | 0.6 |
| CCOC(=O)c1c(CC(C)C)csc1NC(=O)c1ccccc1C(=O)O | 1.1 |
| CCOC(=O)C1=C(O)/C(=C/c2ccco2)SC1=Nc1ccc([N+](=O)[O-])cc1 | 2.6 |
| O=C(c1ccccc1F)N1CCN(c2cc(N3CCOCC3)c(F)cc2[N+](=O)[O-])CC1 | -8.1 |
| CN1C(=O)NC(=O)/C(=C/c2ccc(-c3cccc(Cl)c3)o2)C1=O | 81.5 |
| O=C1CCCC2=C1C(c1ccccc1Cl)Nc1ccc(C(=O)c3ccccc3)cc1N2 (centres undefined) | 17.6 |
| O=C(/C=C/c1cccs1)OCCNC(=O)c1cccnc1 | -7.3 |
| COc1ccc(CN2CCN(Cc3ccccn3)CC2)cc1Br | -5.1 |
| COC(=O)C1=C(O)/C(=C\c2cccc(Br)c2)N=C1C | 12.7 |
| COc1ccc(C(=O)Nc2ncc([N+](=O)[O-])s2)cc1OC | 15 |
| Cc1ccc(/C=C/C(=O)Nc2ccc3c(c2)OCO3)cc1 | 10.7 |
| O=C(c1cc2n(n1)C(C(F)(F)F)CC(c1ccco1)N2)N1CCCc2ccccc21 (centres undefined) | 1.1 |
| O=C(NCc1cccnc1)c1cc2nc(-c3ccc(Cl)cc3)cc(C(F)(F)F)n2n1 | 11.9 |
| Cc1ccc(OCCCN2CCOCC2)c(C(C)(C)C)c1 | 3.9 |
| Cc1ccc(-c2cc3nc(-c4ccccc4)cc(C)n3n2)cc1 | -11.6 |
| O=C(Nc1ccc2c(c1)OCO2)c1nn2c(c1Cl)NC(c1ccc(Br)cc1)CC2C(F)(F)F (centres undefined) | -0.7 |
| Cc1cc2c(cc1C)NC(c1cc(Br)ccc1F)C1=C(CC(C)(C)CC1=O)N2 (centres undefined) | -3 |
| Oc1ccc(Cc2nc3ccccc3[nH]2)cc1 | 2.4 |
| O=C(Nc1ccccc1CO)c1ccc(F)cc1 | 5.2 |
| CCCOc1ccc(-c2ccc(-c3nc(-c4cccnc4)no3)cc2)cc1 | -7 |
| CC(C)CNC(=O)c1cc(-c2cccs2)nc2ccccc12 | -4.7 |
| CC(C)c1ccc(C(=O)NC2CC2)cc1 | -2.5 |

| SMILES | displacement [%] |
| --- | --- |
| CC(C)(C)OC(=O)NNC(=O)c1ccc(Cl)cc1 | -2 |
| O=Cc1ccc(-c2ccc(C(=O)O)cc2)o1 | 10.5 |
| CCC(=O)CC(O)(c1ccccc1)C(F)(F)F (centres undefined) | 13.2 |
| O=C(Cc1ccccc1[N+](=O)[O-])NCc1ccncc1 | -7.9 |
| Cc1ccc(OCC(=O)Nc2sc3c(c2C#N)CCCC3)cc1 | -2.3 |
| O=C(c1ccccc1)C(Sc1ccc(Br)cc1)C(=O)c1ccccc1 | 11.6 |
| Cc1cccc(N2C(=O)NC(=O)/C(=C/c3cccc4ccccc34)C2=O)c1 | -9.5 |
| Cc1cc(C)cc(-n2c(C)cc(/C=N/NC(=O)c3ccncc3)c2C)c1 | -23.1 |
| CCOC(=O)C(NC(=O)c1ccccc1)=C1CCCCC1 | 12.4 |
| CCOc1cc(/C=N/n2cnnc2)cc(Cl)c1OCCOc1cc(C)ccc1C(C)C | -2.6 |
| COc1cc(/C=C2/SC(=S)N(CCC(=O)Nc3ccc(C(C)=O)cc3)C2=O)cc(OC)c1OC | 12.2 |
| O=C1c2ccccc2C(=O)N1CC(O)COC1CCCCC1 (centres undefined) | -5.1 |
| Cc1cc(C2C3=C(CC(C)(C)CC3=O)N=C3c4ccccc4C(=O)C32)cc(C)c1O (centres undefined) | -2.1 |
| COc1ccc(C(=O)c2ccc(OC)cc2)cc1 | 1.8 |
| CC1=C(C)CC2C(=O)N(c3cccc4ccccc34)C(=O)C2C1 (centres undefined) | 3 |
| COc1ccc(C)cc1NC(=O)COc1ccc(Cl)cc1Cl | -2.8 |
| CCOC(=O)C1=C(C)N=C2SCC(=O)N2C1c1ccc(Br)cc1 (centres undefined) | -10.8 |
| COc1ccc(C(=O)Nc2c(C)ccc3nsnc23)cc1OC | 1.8 |
| O=C(N/N=C/c1cccnc1)c1sc2ccccc2c1Cl | 4.5 |
| Cc1ccc(/C=C2\SC(=O)N(CCC(=O)Nc3ccccc3)C2=O)cc1 | 3.8 |
| Nc1nonc1-c1nc2ccccc2n1Cc1ccccc1Cl | 9.9 |
| Cc1cccc(Nc2cc(=O)[nH]c(=O)[nH]2)c1 | 8.6 |
| Cc1cc(C)cc(NC(=O)C(=O)NCc2ccco2)c1 | 11.7 |
| CC1(C)CC(=O)C2=C(C1)N(Cc1ccccc1)C1=C(C(=O)CC(C)(C)C1)C2c1cccs1 | -11.1 |
